Measurements taken from patent US12435144B2, “Use of combination of anti-PD-1 antibody and VEGFR inhibitor in preparation of drug for treating cancers” (Suzhou Suncadia Biopharmaceuticals Co., Ltd., priority 2016, dated 2025).

Legend:
[1] = tested on: mouse colon cancer cell MC-38 (PD-L1) xenograft; assay: MC38 (PD-L1) xenograft in human PD-1 transgenic C57 mice; type: in vivo; conditions: anti-PD-1 antibody 3 mg/kg ip Q2D*7, apatinib 200 mg/kg po QD*14; for % Tumor inhibition rate D21: day 21, vs HIgG control
Method: • 1. Study purposes: Human PD-1 transgenic mice were used as test animals. The effects of anti-PD-1 antibody in combination with apartinib on human PD-1 expressed in transgenic C57 mice were evaluated, and the transgenic mice bear mouse colon cancer cell MC-38 (PD-L1) xenograft transfected with PD-L1 gene. • 2. Test antibodies and compounds: The anti-PD-1 antibody was prepared according to the method disclosed in WO2015085847 in which the corresponding code of the antibody is H005-1, and the sequences of the heavy and light chain are shown in SEQ ID NO: 7 and SEQ ID NO: 8 in the present invention. Lot number: P1512, 200 mg/vial, formulated into 20 mg/ml before use. Apatinib mesylate was prepared according to the method disclosed in CN101676267A, lot number: 668160401; molecular weight: 493.58; purity: 99.60%. • 3. Experimental animals: Human PD-1 transgenic C57 mice, specific-pathogen-free (SPF), with different body weights, 50% male and 50% female, were purchased from IsisInnovation Limited, UK. • 4. Drug preparation: Anti-PD-1 antibody (3 mg/kg): anti-PD-1 antibody stock solution (20 mg/ml) was adjusted to a concentration of 0.3 mg/ml with phosphate buffered saline (PBS), and the intraperitoneal injection volume was 0.2 ml/mouse. Apatinib (200 mg/kg): 400 mg apatinib was dissolved in 20 ml of 0.5% sodium carboxymethylcellulose (NaCMC), adjusted to 20 mg/ml, and was administered in 0.2 ml per mouse by gavage. The solvent vehicle (HIgG) control contained human IgG (3 mg/kg dissolved in 0.5% CMC, adjusted to 0.3 mg/ml, and the volume for intraperitoneal injection was 0.2 ml/mouse. • 5. Test method: • 5.1 C57 mice were adapted to the laboratory environment for >5 days. • 5.2 Tumor cells transplantation: Skin preparation was performed on human PD-1 transgenic C57 mice one day before MC38 (PD-L1) cells (5×10^6/mouse) were inoculated subcutaneously at the right flank on June 12. The tumors were then grown for 8 days. When the tumors reached 142.17±13.30 mm^3, the animals were randomly assigned to 4 groups (d0) with 8 mice in each group (four male mice and four female mice in each group). • 5.3 Dose and method of administration: Anti-PD-1 antibody was injected intraperitoneally, Q2D*7 (once every 2 days, 7 times in total), and apatinib was administered by oral gavage, QD*14 (once a day for 14 days). The specific drug administration regimen is shown in Table 1. • 5.4 Determination of volume of xenograft and body weight of mice: Tumor volume and body weight were measured twice a week and data were recorded. • 5.5 Statistics: Excel 2003 statistical software was used: the mean was calculated by avg; the SD value was calculated by STDEV; the SEM value was calculated by STDEV/SQRT; the P value indicating the difference between groups is calculated by TTEST. […]

advanced malignant tumor = conditions: human, in vivo
Description: Inclusion criteria: (1) advanced malignancy; (2) failure in chemotherapy by using first-line, second-line or above; (3) measurable lesions; (4) ECOG score 0-1.
Test drugs: commercially available apatinib mesylate tablet; the anti-PD-1 antibody of Example 1.
Method of administration: Up to Sep. 20, 2017, a total of 31 subjects were screened, 30 subjects were enrolled (14 subjects withdrew from treatment, and 16 subjects were still in the group of administration).
Administration method for subjects No. 001-005 was intravenous infusion of anti-PD-1 antibody, 3 mg/kg, once every 2 weeks; apatinib orally, 500 mg, once a day. Administration method for subjects No. 006-010 was intravenous infusion of anti-PD-1 antibody, 200 mg, once every 2 weeks; apatinib orally, 125 mg, once a day. Administration method for subjects No. 011-031 was intravenous infusion of anti-PD-1 antibody, 200 mg, once every 2 weeks; apatinib orally, 250 mg, once a day.

advanced solid tumors = conditions: in vivo; cited from earlier work

B1: Anti-PD-1 antibody: humanized anti-PD-1 antibody, code H005-1 in WO2015085847; heavy chain SEQ ID NO: 7, light chain SEQ ID NO: 8 (antibody)
heavy: EVQLVESGGGLVQPGGSLRLSCAASGFTFSSYMMSWVRQAPGKGLEWVATISGGGANTYYPDSVKGRFTISRDNAKNSLYLQMNSLRAEDTAVYYCARQLYYFDYWGQGTTVTVSSASTKGPSVFPLAPCSRSTSESTAALGCLVKDYFPEPVTVSWNSGALTSGVHTFPAVLQSSGLYSLSSVVTVPSSSLGTKTYTCNVDHKPSNTKVDKRV[sequence of human IgG4 Fc with S228P (EU numbers) omitted]
light: DIQMTQSPSSLSASVGDRVTITCLASQTIGTWLTWYQQKPGKAPKLLIYTATSLADGVPSRFSGSGSGTDFTLTISSLQPEDFATYYCQQVYSIPWTFGGGTKVEIKRTVAAPSVFIFPPSDEQLKSGTASVVCLLNNFYPREAKVQWKVDNALQSGNSQESVTEQDSKDSTYSLSSTLTLSKADYEKHKVYACEVTHQGLSSPVTKSFNRGEC
modifications: PD-1 FORM Heavy chain; PD-1 FORM Light chain
In the case of B1, the “Relative tumor volume D21” value ([1]; RTV=VT/V0, day 21) is reported as 11.47, the “% Tumor inhibition rate D21” value [1] is reported as 20.40% and the “% Tumor inhibition rate D21” value ([1]; listed as anti-PD-1 antibody) is reported as 20.40%. For the same molecule, the “Mean tumor volume (mm^3) D21” value ([1]; day 21 after initial administration, 8 mice/group) was 1652.93 mm^3, the hemangioma-associated adverse effect (advanced malignant tumor) was “observed in only one subject” and the “incidence of capillary hemangioma” value (advanced solid tumors) was 79.3%. For the same molecule, the incidence of diarrhea (advanced solid tumors) was 10.3%, the incidence of hypothyroidism (advanced solid tumors) was 29.3% and the incidence of pruritus (advanced solid tumors) was 19.0%.
